Data as given in patent publication US20250270341A1 (Alector, published 2025).

T1: Full length human CD98hc on CHO cells (human)
T1 construct: CHO cells stably overexpressing it; also called CHO-human CD98hc; CHO-huCD98hc
T1 chain: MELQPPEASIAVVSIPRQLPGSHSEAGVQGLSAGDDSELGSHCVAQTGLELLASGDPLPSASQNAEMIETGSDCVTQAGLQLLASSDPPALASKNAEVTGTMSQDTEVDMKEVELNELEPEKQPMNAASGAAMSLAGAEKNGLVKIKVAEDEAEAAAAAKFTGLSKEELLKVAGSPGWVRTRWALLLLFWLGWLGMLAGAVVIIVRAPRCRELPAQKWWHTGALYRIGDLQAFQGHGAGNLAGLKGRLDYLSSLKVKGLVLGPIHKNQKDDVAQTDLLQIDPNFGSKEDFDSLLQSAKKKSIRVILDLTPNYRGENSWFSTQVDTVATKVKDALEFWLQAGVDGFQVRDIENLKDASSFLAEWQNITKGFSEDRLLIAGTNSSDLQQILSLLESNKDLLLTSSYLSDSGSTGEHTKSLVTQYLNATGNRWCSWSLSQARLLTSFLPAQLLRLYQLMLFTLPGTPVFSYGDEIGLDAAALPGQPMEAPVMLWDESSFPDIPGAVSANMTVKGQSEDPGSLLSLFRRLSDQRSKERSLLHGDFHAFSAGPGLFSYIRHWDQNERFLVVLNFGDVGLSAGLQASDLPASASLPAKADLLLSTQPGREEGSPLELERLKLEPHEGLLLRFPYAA

T2: human CD98hc endogenously expressed on HCMEC/D3 cells (human)
T2 construct: human brain endothelial cell line
T2 chain: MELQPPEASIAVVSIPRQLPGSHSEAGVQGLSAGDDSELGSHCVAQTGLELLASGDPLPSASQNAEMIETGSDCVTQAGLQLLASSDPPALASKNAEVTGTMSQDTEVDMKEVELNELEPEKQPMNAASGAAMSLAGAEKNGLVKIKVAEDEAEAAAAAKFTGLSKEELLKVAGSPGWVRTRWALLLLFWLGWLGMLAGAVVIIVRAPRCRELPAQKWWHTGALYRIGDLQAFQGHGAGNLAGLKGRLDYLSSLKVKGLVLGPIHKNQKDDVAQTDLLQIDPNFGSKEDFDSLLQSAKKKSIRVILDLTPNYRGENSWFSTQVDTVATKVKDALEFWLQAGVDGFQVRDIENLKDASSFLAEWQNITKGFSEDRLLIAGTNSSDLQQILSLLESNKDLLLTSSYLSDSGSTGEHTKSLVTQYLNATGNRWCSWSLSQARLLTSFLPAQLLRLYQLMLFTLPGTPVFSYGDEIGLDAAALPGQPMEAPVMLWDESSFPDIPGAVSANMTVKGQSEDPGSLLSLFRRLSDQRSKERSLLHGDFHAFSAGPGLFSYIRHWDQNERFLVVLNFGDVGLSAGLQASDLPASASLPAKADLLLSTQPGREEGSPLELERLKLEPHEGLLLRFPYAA

T3: huCD98hc ECD Avi-His (human, UniProt P08195 105-529)
T3 construct: biotinylated on the Avi tag where captured on streptavidin; also called Human CD98-AVI-His; Human CD98hc-AVI-His
T3 sequence: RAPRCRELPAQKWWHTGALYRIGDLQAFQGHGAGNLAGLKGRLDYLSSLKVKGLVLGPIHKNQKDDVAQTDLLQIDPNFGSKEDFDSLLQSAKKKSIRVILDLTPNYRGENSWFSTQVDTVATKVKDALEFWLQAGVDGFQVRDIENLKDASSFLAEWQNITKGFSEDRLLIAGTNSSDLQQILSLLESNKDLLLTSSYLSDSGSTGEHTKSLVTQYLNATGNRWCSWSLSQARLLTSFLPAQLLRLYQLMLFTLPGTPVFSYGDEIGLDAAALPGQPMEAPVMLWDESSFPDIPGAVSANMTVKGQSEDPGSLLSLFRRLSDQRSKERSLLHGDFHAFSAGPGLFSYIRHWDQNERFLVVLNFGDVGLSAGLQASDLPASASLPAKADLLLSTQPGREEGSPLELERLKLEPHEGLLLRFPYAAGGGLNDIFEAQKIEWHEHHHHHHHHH

T4: Cyno CD98hc ECD Avi-His (cynomolgus macaque, UniProt P08195 105-529 (human entry))
T4 construct: biotinylated on the Avi tag where captured on streptavidin; also called Cyno CD98-AVI-His; Cyno CD98hc-AVI-His
T4 chain: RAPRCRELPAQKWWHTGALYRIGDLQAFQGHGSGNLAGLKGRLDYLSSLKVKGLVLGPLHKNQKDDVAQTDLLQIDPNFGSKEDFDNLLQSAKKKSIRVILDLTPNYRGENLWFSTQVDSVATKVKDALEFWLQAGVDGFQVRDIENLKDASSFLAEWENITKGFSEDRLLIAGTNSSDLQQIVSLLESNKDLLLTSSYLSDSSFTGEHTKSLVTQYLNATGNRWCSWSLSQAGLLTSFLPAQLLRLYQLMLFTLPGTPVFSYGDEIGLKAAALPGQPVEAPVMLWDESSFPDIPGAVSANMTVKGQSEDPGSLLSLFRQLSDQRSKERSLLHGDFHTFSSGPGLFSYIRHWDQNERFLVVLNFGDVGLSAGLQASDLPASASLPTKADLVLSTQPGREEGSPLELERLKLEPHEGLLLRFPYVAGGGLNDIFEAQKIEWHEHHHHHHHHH


Columns and labels:
[1] = molecular target: T1, Full length human CD98hc on CHO cells; experiment: FACS
Experimental: (§1) Purified 2+1 anti-CD98hc bispecific antibodies were screened for binding to human and cyno CD98hc by ELISA as in Example 6. Purified 2+1 bispecific antibodies were screened at concentrations ranging from 1-30 μg/mL. ELISA binding to human and cyno CD98 and control cyno TfR AVI-His tagged proteins as a ratio to secondary antibody alone were calculated, and values are listed in Table 10A. Purified 2+1 bispecific antibodies were also screened for their ability to bind CHO cells overexpressing human or mouse CD98hc or cells endogenously expressing human CD98hc by FACS. […] Data was acquired on a FACS Canto (BD Biosciences). The ratio of binding to endogenously expressing human brain endothelial cells over secondary only is also in Table 12B. 47 out of 94 of the 2+1 anti-CD98hc bispecific antibodies screened were positive by ELISA with signal at least 5-fold higher than the secondary alone, and 16 were ELISA and FACS positive which FACS binding increased 3-fold or more compared to non-expressing cells.

[2] = molecular target: T2, human CD98hc endogenously expressed on …; experiment: FACS
Experimental: as §1

huCD98hc ECD Avi-His = molecular target: T3, huCD98hc ECD Avi-His; experiment: ELISA, 1-30 ug/mL
Experimental: (§2) Blocking buffer was removed and human, cyno, or mouse Avi-His-tagged CD98hc and Avi-His-tagged human TfR polypeptides were added at 1 μg/ml in ELISA diluent and captured for 1 hour at room temperature. After washing three times with 300 μl of PBST (PBS+0.05% Tween20, Thermo 28352), the hybridoma cell culture supernatants or 1 μg/ml of commercially available purified mouse anti-human CD98hc monoclonal antibody (Sigma Aldrich, Cat #SAB 4700503) and rat anti-mouse CD98hc antibody (Bio-Rad Laboratories, Hercules, CA, Cat #MCA2684) were added (50 μl/well) to each well. After 30 minutes of incubation at room temperature, the plates were washed three times with 300 μl of PBST. […] After a final set of washes (3×300 μl in PBST), 50 μl/well of BioFx TMB substrate (Surmodics, Eden Praire, MN, Cat #TMBW-1000-01) was added to the wells. The reaction was then quenched after 5-10 mins with 50 μl/well of 2N sulfuric acid. The plates were read for absorbance at 450 nm on a SpectraMax M5 (Molecular Devices, Sunnyvale, CA) using SoftMax Pro software.
(§3) Purified 2+1 anti-CD98hc bispecific antibodies were screened for binding to human and cyno CD98hc by ELISA as in Example 6. Purified 2+1 bispecific antibodies were screened at concentrations ranging from 1-30 μg/mL. ELISA binding to human and cyno CD98 and control cyno TfR AVI-His tagged proteins as a ratio to secondary antibody alone were calculated, and values are listed in Table 10A. Purified 2+1 bispecific antibodies were also screened for their ability to bind CHO cells overexpressing human or mouse CD98hc or cells endogenously expressing human CD98hc by FACS. […] Data was acquired on a FACS Canto (BD Biosciences).

cyno TfR AVI-His = molecular target: T5, cyno TfR AVI-His (cyno, UniProt H9EXL1 89-760 (rhesus entry)); experiment: ELISA, 1-30 ug/mL
Sequence of cyno TfR AVI-His (chain, as listed by the source): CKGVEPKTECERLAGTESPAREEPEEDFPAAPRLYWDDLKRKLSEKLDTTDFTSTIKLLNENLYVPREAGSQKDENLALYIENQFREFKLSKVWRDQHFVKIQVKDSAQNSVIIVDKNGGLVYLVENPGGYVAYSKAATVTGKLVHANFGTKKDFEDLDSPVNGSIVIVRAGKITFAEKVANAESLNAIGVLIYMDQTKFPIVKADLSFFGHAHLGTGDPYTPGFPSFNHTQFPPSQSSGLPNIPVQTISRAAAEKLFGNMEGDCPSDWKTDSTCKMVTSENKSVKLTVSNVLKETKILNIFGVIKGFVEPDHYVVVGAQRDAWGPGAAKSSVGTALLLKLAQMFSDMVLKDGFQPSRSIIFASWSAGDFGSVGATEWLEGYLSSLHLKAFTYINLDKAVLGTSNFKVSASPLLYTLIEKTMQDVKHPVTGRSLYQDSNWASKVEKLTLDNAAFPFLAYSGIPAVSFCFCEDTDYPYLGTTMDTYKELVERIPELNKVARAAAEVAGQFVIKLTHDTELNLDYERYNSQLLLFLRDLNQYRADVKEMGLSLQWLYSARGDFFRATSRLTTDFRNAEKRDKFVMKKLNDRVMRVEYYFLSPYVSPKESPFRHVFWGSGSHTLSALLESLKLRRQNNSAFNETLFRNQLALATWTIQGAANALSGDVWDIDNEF
T5 construct: control protein
Experimental: as §2, §3

Cyno CD98hc ECD Avi-His [3] = molecular target: T4, Cyno CD98hc ECD Avi-His; experiment: ELISA, 1-30 ug/mL
Experimental: as §2, §3

Cyno CD98hc ECD Avi-His [4] = molecular target: T4, Cyno CD98hc ECD Avi-His; experiment: SPR, Carterra LSA, antibody immobilized
Experimental: Binding kinetics of 2+1 anti-CD98hc bispecific antibodies (from the hybridoma campaigns) to human and cyno CD98hc Avi-His were evaluated using a Carterra LSA instrument (Carterra, Salt Lake City, UT). The 2+1 anti-CD98hc bispecific antibodies were prepared in duplicates by diluting 50-fold into 10 mM Acetate, pH 5.0 (Carterra) to give final concentration of 20 μg/mL. An HC200M sensor chip (Carterra) was activated using the single channel flow cell with a 7-minute injection of a 1:1:1 mixture of 100 mM MES pH 5.5, 100 mM sulfo-NHS, 400 mM EDC (all reconstituted in MES pH 5.5; 100 μl of each mixed in vial immediately before running assay). After switching to the multi-channel array flow cell, the antibodies were injected over the activated chip in four 96-spot arrays for 15 minutes each. The remaining unconjugated active groups on the chip were then blocked by injecting 1M Ethanolamine pH 8.5 (Carterra) for 7 minutes using the single channel flow cell. The resulting sensor chip contained eight spots for each antibody, at four different densities. Two independent experiments were performed as follows, resulting in an N of between one and eight determinations for each antibody. Spots that yielded less than 20 RU of analyte binding were excluded from further analysis.
After priming with running buffer HBS-EP+ (Teknova) with 0.5 mg/ml BSA (MP Biomedicals), the immobilized 2+1 anti-CD98hc bispecific antibodies were tested for their ability to bind to several forms of CD98hc Avi-His, including human and cyno orthologs described above. Estimates of affinity were generated by injecting each analyte over the entire antibody array using the single channel flow cell. CD98hc Avi-His analytes were diluted with running buffer, in a series of six, three-fold serial dilutions starting from 600 nM for human and cyno CD98hc Avi-His. Analytes were injected for 5 minutes, and dissociation was followed for 10 minutes. After each analyte injection, antibodies were regenerated with Pierce IgG Elution Buffer (ThermoScientific). Data were processed and analyzed using NextGenKIT high-throughput kinetics analysis software (Carterra).
The equilibrium dissociation constants (KD) were calculated from the fitted association and dissociation rate constants (k-on and k-off) for 2+1 anti-CD98hc bispecific antibodies of the present disclosure.

Row | Binder | MFI ratio CHO huCD98/CHO parental [1] | MFI ratio HCMEC/2nd ab only [2] | ELISA ratio to 2nd only (huCD98hc ECD Avi-His) | ELISA ratio to 2nd only (cyno TfR AVI-His) | ELISA ratio to 2nd only (Cyno CD98hc ECD Avi-His [3]) | binding result (Cyno CD98hc ECD Avi-His [4])
1 | CD98hc.05.046 (2+1 bispecific antibody) (bispecific antibody) heavy 1: EVRLLESGGGLVQPGGSLRLSCAASGFTFSNYAMGWVRQAPGKGLEWVSAISGSGGSTYYADSVKGRFTTSRDDSKNALYLQMNSLRAEDTAVYYCARGGPGWYAADVWGQGTTVTVSSASTKGPSVFPLAPSSKSTSGGTAALGCLVKDYFPEPVTVSWNSGALTSGVHTFPAVLQSSGLYSLSSVVTVPSSSLGTQTYICNVNHKPSNTKVDKKV[here human IgG1 Fc with changes without letters]GGGGSGGGGSGGGGSEVQLVESGGGLVKPGGSLKLSCAASGFTFSDYYMYWVRQTPEKRLEWVATISDGGSYTYYPDSVKGRFTISRDNAKNNLYLQMSSLKSEDTAMYYCARDRAYYYGSSYGFGYWGQGTLVTVSSGGSEGKSSGSGSESKSTGGSDVVMTQTPLSLPVSLGNQASISCRSSQSLVHSNGNTFFHWYLQKPGQSPKLLIYKVSNRFSGVPDRFSGSGSGTDFTLKISRVEAEDLGLYFCSQTTHVPPTFGGGTKLEIK heavy 2: EVRLLESGGGLVQPGGSLRLSCAASGFTFSNYAMGWVRQAPGKGLEWVSAISGSGGSTYYADSVKGRFTTSRDDSKNALYLQMNSLRAEDTAVYYCARGGPGWYAADVWGQGTTVTVSS[here human IgG1 constant region with changes without letters] light: DIQMTQSPSSLSASVGDRVTITCRASQSISSYLNWYQQKPGKAPKLLIYAASSLQSGVPSRFSGSGSGTDFTLTISSLQPEDFATYYCQQADLPAFAFGGGTKVEIKRTVAAPSVFIFPPSDEQLKSGTASVVCLLNNFYPREAKVQWKVDNALQSGNSQESVTEQDSKDSTYSLSSTLTLSKADYEKHKVYACEVTHQGLSSPVTKSFNRGEC | 9 | 98 | 25 | 1 |  | 
2 | CD98hc.05.153 (2+1 bispecific antibody) (bispecific antibody) heavy 1: EVRLLESGGGLVQPGGSLRLSCAASGFTFSNYAMGWVRQAPGKGLEWVSAISGSGGSTYYADSVKGRFTTSRDDSKNALYLQMNSLRAEDTAVYYCARGGPGWYAADVWGQGTTVTVSSASTKGPSVFPLAPSSKSTSGGTAALGCLVKDYFPEPVTVSWNSGALTSGVHTFPAVLQSSGLYSLSSVVTVPSSSLGTQTYICNVNHKPSNTKVDKKV[here human IgG1 Fc with changes without letters]GGGGSGGGGSGGGGSEVQLVESGGGLVKPGGSLKLSCAASGFDFSNCDMSWVRQTPEKRLEWVAYISNSGDSTYFPHTVKGRFTISRDNAKNALYLQMSSLKSEDTAMYYCARQGGHYPWFVYWGQGTLVTVSSGGSEGKSSGSGSESKSTGGSDIVMSQSPSFLDVSVGEKVAMTCKSIQSLLYSGNQKNYLAWYQQKPGQSPKVLIYWASTRESGVPDRFTGSGSGTDFTLTISSVKAEDLAVYYCQQYYTYPPTFGGGTKLEIK heavy 2: EVRLLESGGGLVQPGGSLRLSCAASGFTFSNYAMGWVRQAPGKGLEWVSAISGSGGSTYYADSVKGRFTTSRDDSKNALYLQMNSLRAEDTAVYYCARGGPGWYAADVWGQGTTVTVSS[here human IgG1 constant region with changes without letters] light: DIQMTQSPSSLSASVGDRVTITCRASQSISSYLNWYQQKPGKAPKLLIYAASSLQSGVPSRFSGSGSGTDFTLTISSLQPEDFATYYCQQADLPAFAFGGGTKVEIKRTVAAPSVFIFPPSDEQLKSGTASVVCLLNNFYPREAKVQWKVDNALQSGNSQESVTEQDSKDSTYSLSSTLTLSKADYEKHKVYACEVTHQGLSSPVTKSFNRGEC | 6 | 80 |  | 1 | 1 | no binding (tested: 600 nM)
